Test results from PubChem BioAssay (NCATS).
“And” between values parts separate entries of the source, which are not always exact repeats. Equal values may be shown once. Inconclusive results, whose numbers are uncertain, are shown with a selection of clear calls. A potency beside an inconclusive call is a rough fit, not a confirmed value. The source made the active and inactive calls. Calls follow the shape of the dose curve; as a rule, active = well fitted curve in the direction sought with a large enough effect; inconclusive = small, poorly fitted or top-dose-only effect, or another doubt; inactive = no such curve, though single readings can be large; an effect the other way counts as inactive or inconclusive.

Columns and labels:
[1] = qHTS of pediatric cancer cell lines to identify multiple opportunities for drug repurposing: Primary screen for DAOY cells (AID 1347090); details: DAOY medulloblastoma viability, CellTiter-Glo luminescence, 48 h; activity change, negative = cytotoxic: at 46 µM (top of the series) unless noted; also: nearly all actives have a fitted effect of over 55% in size
Outline: (§1)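 Eight- or eleven-point concentration series, 48 h treatment at 37 degrees C in growth media; readout CellTiter-Glo luminescence. Potency and efficacy were taken from the concentration-response curves.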

[2] = qHTS of pediatric cancer cell lines to identify multiple opportunities for drug repurposing: Primary screen for TC32 cells (AID 1347089); also: nearly all actives have a fitted effect of over 60% in size
Outline: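 A viability screen of TC32 cells was run over 48 h, with primary MIPE doses spanning 0.78 nM–46 µM and NPC doses 0.59 nM–46 µM. ATP luminescence (CellTiter-Glo) served as the read-out.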

[3] = qHTS of pediatric cancer cell lines to identify multiple opportunities for drug repurposing: Primary screen for SJ-GBM2 cells (AID 1347091)
Outline: as §1

[4] = qHTS of pediatric cancer cell lines to identify multiple opportunities for drug repurposing: Primary screen for A673 cells (AID 1347092); details: A673 Ewing sarcoma viability, CellTiter-Glo ATP luminescence, 48 h; activity change, negative = cytotoxic: at 46 µM (top of the series); also: nearly all actives have a fitted effect of over 45% in size
Outline: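 Titration-based qHTS on A673 cells: MIPE compounds spanned 11 points (0.78 nM to 46 µM final), NPC compounds 8 points (0.59 nM to 46 µM final). Viability after 48 h was measured by ATP luminescence.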

[5] = qHTS of pediatric cancer cell lines to identify multiple opportunities for drug repurposing: Primary screen for BT-37 cells (AID 1347094)
Outline: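 ATP-based luminescence (CellTiter-Glo) quantifies viability after a 48-hour exposure. Compounds are dosed across 8 or 11 final concentrations; DMSO and 2.3 µM bortezomib serve as controls.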

[6] = qHTS of pediatric cancer cell lines to identify multiple opportunities for drug repurposing: Primary screen for SK-N-MC cells (AID 1347093); details: SK-N-MC viability, CellTiter-Glo luminescence, 48 h; activity change, negative = cytotoxic: at 46 µM (top of the series)
Outline: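 Metabolically active cells were quantified by ATP-dependent luminescence (CellTiter-Glo, 15 min at room temperature) following 48 h treatment. Cells had been plated at 500-1,000 per well and settled for 5 h beforehand.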
Potency is read from the fitted curve at half-maximal effect; tags tell the direction and shape of the fitted curve.

Row | Structure (SMILES) | Potency [1] | Potency [2] | Potency [3] | Potency [4] | Potency [5] | Potency [6]
1 | CC(C)=CC[C@@H](O)C1=CC(=O)c2c(O)ccc(O)c2C1=O | inconclusive: 29.6 µM [cytotoxic, single point] | – | – | – | – | –
2 | CCCCC(C)(C)[C@H](O)C=C[C@H]1[C@H](O)CC(=O)[C@H]1CC=CCCCC(=O)O | – | inconclusive: 26.2 µM [cytotoxic, single point] | inactive | inconclusive: 14.8 µM [cytotoxic, partial curve] | inconclusive: 21.7 µM [cytotoxic, partial curve] | –
3 | O=c1ccn([C@@H]2O[C@H](CO)[C@H](O)[C@H]2O)c(=O)[nH]1 | inactive | – | – | – | – | –
4 | CN(C)CCOC(c1ccccc1)c1ccccc1 | inconclusive: 37.2 µM [cytotoxic, single point] | – | inconclusive: 33.2 µM [cytotoxic, single point] | inconclusive: 29.6 µM [cytotoxic, single point] | – | –
5 | CN(C)c1ccc(O)c2c1C[C@H]1C[C@H]3[C@H](N(C)C)C(=O)C(C(N)=O)=C(O)[C@@]3(O)C(=O)C1=C2O | inconclusive: 9.35 µM [cytotoxic, partial curve] | inconclusive: 0.001 µM | – | – | inconclusive: 24.3 µM [cytotoxic, partial curve] and inconclusive: 21.9 µM [cytotoxic, single point] | –
6 | NS(=O)(=O)c1ccc(NC2=CC(=O)c3ccccc3C2=O)cc1 | – | inconclusive: 7.39 µM [cytotoxic, partial curve, poor fit] | inactive | inconclusive: 1.87 µM [cytotoxic, full curve] | inconclusive: 6.11 µM [cytotoxic, partial curve] | active: 10.5 µM
7 | COc1ccc(-c2nc3ccc(C4=NNC(=O)CC4C)cc3[nH]2)cc1 (stereo unspecified) | – | inconclusive: 26.4 µM [cytotoxic, single point] | inconclusive: 23.7 µM [cytotoxic, single point] | inconclusive: 33.5 µM [cytotoxic, single point] | inconclusive: 24.6 µM [cytotoxic, single point] | –
8 | CC(=O)OC1C(C)OC(Oc2c(-c3ccc(O)cc3)oc3cc(O)cc(O)c3c2=O)C(O)C1OC(C)=O (stereo unspecified) | – | inactive | inconclusive: 23.5 µM [cytotoxic, single point] | – | – | inconclusive: 37.2 µM [cytotoxic, single point]
9 | CCOc1ccc(Nc2nc(-c3c(C)nc4ccccn34)cs2)cc1 | inconclusive: 0.003 µM [cytotoxic, full curve] | – | inconclusive: 0.001 µM [cytotoxic, full curve] | active: 0.003 µM | inconclusive: 0.0077 µM [cytotoxic, full curve] | –
10 | C[C@]12CC[C@H](O)CC1=CCC1C2CC[C@]2(C)C(n3cnc4ccccc43)=CCC12 (stereo partly specified) | inconclusive: 23.5 µM [cytotoxic, partial curve] | – | active: 23.5 µM | – | inconclusive: 24.3 µM [cytotoxic, partial curve, poor fit] | inconclusive: 37.2 µM [cytotoxic, partial curve, poor fit]
11 | CCNC(=O)c1cc2c(-c3cc(OCCN4CCCC4)c(Cl)cc3Cl)nc(N)nc2s1 | inconclusive: 3.72 µM [cytotoxic, full curve] | – | active: 2.09 µM | – | inconclusive: 3.06 µM [cytotoxic, full curve] | –
12 | O=C1NC(=O)C(=Cc2ccc3c(c2)OC(F)(F)O3)S1 | active: 23.5 µM | – | inconclusive: 4.18 µM [cytotoxic, full curve] | – | inconclusive: 24.3 µM [cytotoxic, partial curve, poor fit] | active: 3.32 µM
13 | CNC(=O)c1ccc(-c2cnc3ncc(Cc4ccc5ncccc5c4)n3n2)cc1F | inconclusive: 29.6 µM [cytotoxic, partial curve, poor fit] | – | inconclusive: 0.001 µM [cytotoxic, full curve] | inconclusive: 37.2 µM [cytotoxic, single point] | – | inconclusive: 37.2 µM [cytotoxic, single point]
14 | O=c1[nH]c(=O)n([C@H]2C[C@@H](O)[C@@H](CO)O2)cc1F | inconclusive: 14.8 µM [cytotoxic, partial curve] | – | inconclusive: 13.2 µM [cytotoxic, partial curve] | – | – | active: 16.6 µM
15 | CN(C)S(=O)(=O)c1ccc2c(c1)C(=Cc1cc3c([nH]1)CCCC3)C(=O)N2 | inconclusive: 1.48 µM [cytotoxic, full curve] | – | inconclusive: 7.43 µM [cytotoxic, full curve] | inconclusive: 18.7 µM [cytotoxic, partial curve] | inconclusive: 21.7 µM [cytotoxic, partial curve] | –
16 | Cc1cc(=O)oc2cc(O)ccc12 | inconclusive: 29.6 µM [cytotoxic, single point] | – | – | inconclusive: 23.5 µM [cytotoxic, partial curve] | – | –
17 | C=C1C(=O)OC2C=C(C)CCC=C(C)CCC12 (stereo unspecified) | inconclusive: 23.5 µM [cytotoxic, single point] | – | inconclusive: 20.9 µM [cytotoxic, partial curve] | inconclusive: 23.5 µM [cytotoxic, partial curve] | – | inconclusive: 37.2 µM [cytotoxic, single point]
18 | CC(C)(OCc1nn(Cc2ccccc2)c2ccccc12)C(=O)O | inconclusive: 23.5 µM [cytotoxic, single point] | – | – | inconclusive: 29.6 µM [cytotoxic, single point] | – | –
19 | CC1(C)CCC(CN2CCN(c3ccc(C(=O)NS(=O)(=O)c4ccc(NCC5CCOCC5)c([N+](=O)[O-])c4)c(Oc4cnc5[nH]ccc5c4)c3)CC2)=C(c2ccc(Cl)cc2)C1 | active: 14.8 µM | – | active: 2.96 µM | – | active: 27.3 µM | –
